{"source": "PubChem BioAssay AID1347071", "about": "(National Center for Advancing Translational Sciences (NCATS), 2019)", "note": "In all, about 410,000 compounds went through this assay and about 260 (0.063%) were called active. The shares of active, inactive and inconclusive entries below differ from those in the screen. Calls follow the shape of the dose curve; as a rule, active = well fitted activation curve with a large enough effect; inconclusive = small, poorly fitted or top-dose-only effect; inactive = no such curve, though single readings can be large or run the other way. Potencies of inconclusive entries are left out as doubtful fits. Potency is read from the fitted curve at half-maximal effect; tags tell the direction and shape of the fitted curve.", "data": [{"test": "qHTS for compounds that reverse cellular toxicity of Amyloid beta (A-beta) peptide in yeast: Primary Screen; also: nearly all actives have a fitted effect of over 55% in size", "settings": "yeast expressing A-beta42, growth rescue, OD600, 48 h; growth rescue: at 46.1 µM (top of the series), 0% DMSO, 100% iron-clioquinol control", "how_it_was_run": "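Yeast A-beta toxicity model in growth medium with pinned compounds, 48 h at 30 C; growth read as absorbance at 600 nm. Normalized to FeCl3/clioquinol equimolar mix (positive) and DMSO (negative).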", "values": [{"compound": "O=[N+]([O-])c1cc(C(F)(F)F)ccc1N1CCC(O)CC1", "Potency": "inconclusive [activator, partial curve]"}, {"compound": "COCCNC(=S)N/N=C(\\C)c1ccc(Cl)s1", "Potency": "inconclusive [activator, full curve, poor fit]"}, {"compound": "CCc1ccc(NC(=O)C2CCCN(S(=O)(=O)c3cccc4nsnc34)C2)cc1", "note": "(stereo not drawn)", "Potency": "inactive"}, {"compound": "COc1cc(/C=C2/C(=O)NN(c3ccc(Cl)c(Cl)c3)C2=O)cc([N+](=O)[O-])c1O", "Potency": "inconclusive [activator, single point]"}, {"compound": "CC(NC(=S)Nc1ccccc1)C1COc2ccccc2O1", "note": "(stereo not drawn)", "Potency": "inconclusive [activator, partial curve, poor fit]"}, {"compound": "O=c1cnc2ccccc2n1Cc1ccc(Br)cc1", "Potency": "inconclusive [activator, partial curve, poor fit]"}, {"compound": "CNc1nc(Cl)c(SC)c(NCc2cccc(OC)c2)n1", "Potency": "inconclusive [activator, single point]"}, {"compound": "COc1ccc(S(=O)(=O)N(CC(=O)NCCSc2ccccc2)c2ccc(C)cc2)cc1", "Potency": "inactive"}, {"compound": "O=C(C#Cc1ccccc1)c1ccccc1", "Potency": "inactive"}, {"compound": "Cc1cccc(CC(=O)N2CC(=O)Nc3ccc(C)cc3C2c2ccc(F)cc2)c1", "note": "(stereo not drawn)", "Potency": "inactive"}, {"compound": "CC(=O)c1cccc(-c2ccnc3c2CC(C(=O)Nc2ccc(F)c(Cl)c2)O3)c1", "note": "(stereo not drawn)", "Potency": "inactive"}, {"compound": "O=[N+]([O-])c1cccc(N/N=C/c2cccc(O)c2O)c1", "Potency": "inactive"}, {"compound": "CC(C)OCCCNC(=S)N1CCC(C(=O)c2ccc3c(c2)OCCO3)CC1", "Potency": "inconclusive [activator, single point]"}, {"compound": "COc1ccccc1Nc1ccc([N+](=O)[O-])cc1N", "Potency": "inconclusive [activator, full curve, poor fit]"}, {"compound": "CCCOc1ccc(N2C(=O)CC(N3CCN(c4ccc([N+](=O)[O-])cc4)CC3)C2=O)cc1", "note": "(stereo not drawn)", "Potency": "inconclusive [activator, partial curve, poor fit]"}, {"compound": "CCOc1ccccc1C(=O)OCC(=O)Nc1nnc(-c2ccccc2)o1", "Potency": "inconclusive [activator, single point]"}, {"compound": "O=C(CCCOc1ccc(Br)cc1)NCCc1ccc(OC(F)F)cc1", "Potency": "inconclusive [activator, partial curve, poor fit]"}, {"compound": "COc1ccc(OCc2cc(/C=N\\NC(=O)c3ccccc3)ccc2OC)cc1", "Potency": "inconclusive [activator, single point]"}, {"compound": "O=C(CC(C(=O)O)c1cccc(Cl)c1)c1ccccc1", "note": "(stereo not drawn)", "Potency": "inconclusive [activator, single point]"}, {"compound": "O=C(N/N=C\\c1c(O)ccc2ccccc12)c1cncc(Br)c1", "Potency": "inconclusive [activator, single point]"}, {"compound": "Clc1cc2c(c(Cn3cnc4ccccc43)c1)OCOC2", "Potency": "inconclusive [activator, partial curve, poor fit]"}, {"compound": "COc1ccc(-n2cc(-c3ccccc3)c3c(SC(C)C(C)=O)ncnc32)cc1", "note": "(stereo not drawn)", "Potency": "inconclusive [activator, single point]"}, {"compound": "COc1ccccc1N1CCN(S(=O)(=O)c2ccc(-c3cc(C(F)(F)F)on3)s2)CC1", "Potency": "inconclusive [activator, single point]"}, {"compound": "COC(=O)Cn1c(=NC(=O)CSC(C)=O)sc2ccccc21", "Potency": "inconclusive [activator, partial curve, poor fit]"}, {"compound": "C=CCNc1nc(-c2ccccn2)nnc1-c1ccccc1", "Potency": "inactive"}, {"compound": "O=C(NC1CCCC1)c1ccc(S(=O)(=O)N2CCCC2)cc1", "Potency": "inconclusive [activator, partial curve, poor fit]"}, {"compound": "Nc1ccccc1C(=O)N(Cc1ccccc1)Cc1ccccc1", "Potency": "inconclusive [activator, full curve]"}, {"compound": "COc1cccc(/C=N/Nc2nc(Nc3ccc([N+](=O)[O-])cc3)nc(N3CCCC3)n2)c1O", "Potency": "inconclusive [activator, partial curve, poor fit]"}, {"compound": "O=C1c2ccccc2C(=O)c2c1ccc(O)c2O", "Potency": "inactive"}, {"compound": "CCOC(=O)C[C@H]1c2ccc(C(F)(F)F)cc2S(=O)(=O)N1c1ccccc1", "Potency": "inconclusive [activator, single point]"}, {"compound": "CC(=O)NC(c1ccc(C)cc1)c1cc(Cl)c2cccnc2c1O", "note": "(stereo not drawn)", "Potency": "inconclusive [activator, single point]"}, {"compound": "O=C(CSc1nc2ccccc2s1)c1ccc(O)cc1O", "Potency": "inconclusive [activator, full curve]"}, {"compound": "COc1ccc(-c2nc3cc(C)c(Br)c(C)n3c2CC(C)(C)C)cc1OC", "Potency": "inconclusive [activator, single point]"}, {"compound": "COC(=O)C(=N/Nc1ccccc1C(=O)OC)/C(C)=N/O", "Potency": "inconclusive [activator, partial curve, poor fit]"}, {"compound": "CCN(c1ccccc1)S(=O)(=O)c1cc(C(=O)Nc2ccccc2Cl)ccc1F", "Potency": "inconclusive [activator, partial curve, poor fit]"}, {"compound": "Cc1cc(S(=O)(=O)NCCc2csc(-c3cccc(F)c3)n2)ccc1F", "Potency": "inconclusive [activator, full curve, poor fit]"}, {"compound": "CCN(Cc1ccccc1)C(=S)NC(=O)c1ccccc1Br", "Potency": "active: 10 µM"}, {"compound": "CC(C)CNC(=S)NC(=O)c1csc([N+](=O)[O-])c1", "Potency": "inconclusive [activator, partial curve, poor fit]"}, {"compound": "O=C(Cn1c(-c2cccs2)cc2cc(Cl)ccc21)N1CCCCC1", "Potency": "inactive"}, {"compound": "Clc1ccc(CN2CCN(c3ncnc4scc(-c5cccs5)c34)CC2)cc1", "Potency": "inconclusive [activator, partial curve, poor fit]"}, {"compound": "C[C@H](CCC(=O)O)[C@H]1CC[C@H]2[C@@H]3[C@H](O)C[C@@H]4C[C@H](O)CC[C@]4(C)[C@H]3CC[C@]12C", "Potency": "inactive"}, {"compound": "COC(=O)c1cccc(CN2C(=O)SC(Nc3ccccc3C)C2=O)c1", "note": "(stereo not drawn)", "Potency": "inactive"}, {"compound": "CCN(CCCNC(=O)COc1cc(=O)n(C)c2ccccc12)c1ccccc1", "Potency": "inconclusive [activator, partial curve, poor fit]"}]}]}
